From PubChem BioAssay AID1347071 (National Center for Advancing Translational Sciences (NCATS), 2019)
The campaign covered roughly 410,000 compounds. About 260 (0.063%) were called active. Inconclusive results, whose numbers are uncertain, are shown with a selection of clear calls. Calls follow the shape of the dose curve; as a rule, active = well fitted activation curve with a large enough effect; inconclusive = small, poorly fitted or top-dose-only effect; inactive = no such curve, though single readings can be large or run the other way. No potency is given beside an inconclusive call; the fits are too rough.

Test: qHTS for compounds that reverse cellular toxicity of Amyloid beta (A-beta) peptide in yeast: Primary Screen; also: nearly all actives have a fitted effect of over 55% in size
Conditions: yeast expressing A-beta42, growth rescue, OD600, 48 h; growth rescue: at 46.1 µM (top of the series), 0% DMSO, 100% iron-clioquinol control
Method in brief: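 Growth rescue measured by 600 nm absorbance after 48 h yeast culture at 30 C with compound. Values normalized between DMSO and an equimolar ferric chloride plus clioquinol control.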
Potency is read from the fitted curve at half-maximal effect; tags tell the direction and shape of the fitted curve.

| SMILES | Potency |
| --- | --- |
| CC(C)(C)c1cc(CCC(=O)NNC(=S)NC(=O)c2ccccc2)cc(C(C)(C)C)c1O | inconclusive [activator, full curve, poor fit] |
| CCS(=O)(=O)c1ccc2oc(SCC(=O)NC(C)C3CC4CCC3C4)nc2c1 (stereo not drawn) | inconclusive [activator, single point] |
| COc1cccc(C2CC(c3cccs3)=NN2C(=O)CSC2=NCCS2)c1OC (stereo not drawn) | inconclusive [activator, full curve] |
| O=C(CCC(=O)Nc1ccc(F)cc1)N/N=C/c1cccnc1 | inconclusive [activator, partial curve, poor fit] |
| CC(C)C1C(=O)N(Cc2cn(CCC3OCCO3)nn2)CCS(=O)(=O)N1Cc1ccc(-c2ccccc2)cc1 (stereo not drawn) | inactive |
| Cc1cc(F)ccc1S(=O)(=O)Nc1ccccc1C(=O)Nc1ccccc1N1CCOCC1 | inactive |
| Fc1ccc(CNC(=S)NCc2ccc(F)cc2)cc1 | inconclusive [activator, partial curve, poor fit] |
| CC(C)(C)c1ccc(S(=O)(=O)N2CCC(O)(c3ccc(Cl)cc3)CC2)cc1 | inconclusive [activator, partial curve] |
| Cc1cc(O)ccc1NC(=S)NC(=O)c1cncc(Br)c1 | inconclusive [activator, single point] |
| COc1cccc(CNC(=S)Nc2cc(C)ccc2C)c1 | inconclusive [activator, single point] |
| CC1CCc2c(sc(NC(=O)c3cc4nc(-c5ccc(Cl)cc5)cc(C(F)(F)F)n4n3)c2C#N)C1 (stereo not drawn) | inactive |
| Cc1cc(OCc2cc(C(=O)NCC3(C)COC3)no2)cc(C)c1Cl | inconclusive [activator, single point] |
| Cc1cccc2sc(NC(=O)C3c4ccccc4Oc4ccccc43)nc12 | inconclusive [activator, full curve] |
| O=C(CN1CCN(c2ccc(F)cc2)CC1)Nc1ccc(S(=O)(=O)N2CCOCC2)cc1 | inactive |
| Cc1ccc(Cl)cc1NC(=O)CN1C(=O)C(C)(C)c2cc(S(=O)(=O)N3CCCCC3)ccc21 | inactive |
| CCc1ccc(C2=NN(c3ccc(S(N)(=O)=O)cc3)C(c3ccc(F)cc3)C2)cc1 (stereo not drawn) | inconclusive [activator, partial curve] |
| Cc1ccc(-c2cc(C(F)F)nc(NCc3cccs3)n2)cc1 | inactive |
| O=C(NC1CCSC1=O)c1ccc(Oc2ccc(F)cc2)nc1 (stereo not drawn) | inconclusive [activator, partial curve, poor fit] |
| Cc1cc2nc(C)n3c4ccccc4nc3n2n1 | inconclusive [activator, single point] |
| C=CCn1c(COc2cccc(C)c2C)nnc1SCC(=O)N1CCN(c2ccccc2)CC1 | inconclusive [activator, full curve] |
| Cc1sc2c3ccsc3ccc2[n+]1C | inconclusive [activator, single point] |
| CCN(CC(=O)Nc1c(F)cccc1F)C(=O)c1csc2c1CCCC2 | inconclusive [activator, partial curve, poor fit] |
| COc1ccccc1NC(=O)c1ccc(NC(=O)CN2CCCCC2)cc1 | inactive |

| SMILES | Potency |
| --- | --- |
| COc1cccc(C(=O)Oc2ccc3c(C)cc(=O)oc3c2C(C)=O)c1 | inconclusive [activator, partial curve, poor fit] |
| Cc1cc([N+](=O)[O-])ccc1NC(=S)NC(=O)C(c1ccccc1)c1ccccc1 | inconclusive [activator, partial curve] |
| O=C(NCc1ccccc1Cl)c1cnc(N2CCCCC2)c2ccccc12 | inactive |
| O=C1NC2(CCCCCC2)C(=O)N1Cc1ccccc1Cl | inconclusive [activator, single point] |
| S=c1[nH]nc(-c2ccccc2)n1CC1CCCO1 (stereo not drawn) | inconclusive [activator, full curve] |
| COc1cccc(-c2nnc(NC(=O)c3ccc(Cl)s3)o2)c1 | inconclusive [activator, full curve, poor fit] |
| NNC(=S)Nc1ccc(C(F)(F)F)cc1Cl | inconclusive [activator, single point] |
| COc1cccc(NC(=O)c2nc(S(C)(=O)=O)ncc2Cl)c1 | inactive |
| C/C(=N\NC(=O)c1ccccc1O)C1C(=O)c2ccccc2C1=O | inactive |
| CC(=O)c1ccc(NC(=O)CSC(=S)N2CCCC2)cc1 | inconclusive [activator, single point] |
| CN(C)S(=O)(=O)N1CCC(n2cnc3cccnc32)CC1 | inactive |
| Cc1cc(Nc2ccc([N+](=O)[O-])cc2)nc2ccccc12 | inconclusive [activator, full curve] |
| O=C(Nc1ccc(C(=O)O)cc1)/C(=C\C=C\c1ccccc1)NC(=O)c1ccccc1Cl | inconclusive [activator, partial curve, poor fit] |
| COC(=O)c1cc2sccc2n1Cc1ccccc1 | inconclusive [activator, single point] |
| O=C(NCCc1ccccc1)[C@@H]1CC=C[C@@H]2CCN(Cc3ccc(Cl)c(Cl)c3)C(=O)[C@@H]21 | inactive |
| CCn1c(=S)[nH]c2scc(-c3cccs3)c2c1=O | inconclusive [activator, partial curve, poor fit] |
| O=C(Nc1ncc(Cc2cccc(Cl)c2)s1)C1CCCO1 (stereo not drawn) | inconclusive [activator, single point] |
| CCOC(=O)c1sc(N(Cc2ccccc2)C(=O)COC(=O)c2ccc(O)cc2)nc1C | inconclusive [activator, single point] |
| COc1cc(NC(=O)CSc2nc3nc(C)c(Cc4ccccc4)c(C)n3n2)cc(OC)c1 | inactive |
| Cc1ccc(-c2cc(-c3ccccc3)nc(NN)n2)cc1 | inconclusive [activator, single point] |
| CC(C)(C)C(=O)Nc1nnc(Cc2ccccc2)s1 | inconclusive [activator, single point] |
| O=C(Nc1ccccc1C(F)(F)F)c1noc2c1CCCCC2 | inactive |
| O=[N+]([O-])c1cc(C2Nc3cccc4cccc(c34)N2)ccc1Cl | inconclusive [activator, partial curve] |

| SMILES | Potency |
| --- | --- |
| O=C(Nc1nnc(-c2ccccn2)o1)c1cccc(Br)c1 | inconclusive [activator, partial curve, poor fit] |
| COCCn1c(=NC(=O)CSC(C)=O)sc2cc(F)ccc21 | inconclusive [activator, partial curve, poor fit] |
| COc1cc(C(=O)NC(=S)Nc2ccccc2N2CCCC2)cc(OC)c1OC | inconclusive [activator, single point] |
| O=C(COC(=O)CCSc1ccccc1Cl)Nc1ccc(F)cc1F | inconclusive [activator, single point] |
| Cc1cc(C)c(S(=O)(=O)Nc2ccc(-c3ccc(N4CCCCC4)nn3)cc2)c(C)c1 | inactive |
| COc1ccc(-c2cc(C(=O)Nc3ccc(S(=O)(=O)Nc4ncccn4)cc3)c3ccccc3n2)cc1 | inactive |
| FC(F)(F)Oc1ccc(NC(=S)NCc2ccccc2)cc1 | inconclusive [activator, single point] |
| CCC(C)c1ccc(NC(=S)NCCn2cc(Br)cn2)cc1 (stereo not drawn) | active: 10 µM |
| CCCCC(=O)NC(=S)NNC(=O)CCc1ccccc1 | inconclusive [activator, partial curve, poor fit] |
| CC1(C)CC(NC(=O)c2cc(COc3cccc(C(F)(F)F)c3)on2)CCO1 (stereo not drawn) | inconclusive [activator, single point] |
| NNc1nc2c(Cl)ccc(Cl)c2s1 | inconclusive [activator, single point] |
| CCc1ccccc1NC(=O)CN1CCN(C(=O)C(C)NC(=O)c2ccc(Cl)cc2)CC1 (stereo not drawn) | inactive |
| CC1=CCC[C@@H]2[C@@](C)(CC/C(C)=C/C(=O)O)[C@H](C)CC[C@@]12C | inconclusive [activator, partial curve, poor fit] |
| CCCCCn1nc(C)c2c(C)cc(=O)[nH]c21 | inconclusive [activator, partial curve] |
| Cc1c(Cl)cccc1NC(=S)NN | inconclusive [activator, single point] |
| CSc1ccc(/C=N/n2c(Cc3ccc(Br)cc3)n[nH]c2=S)cc1 | inconclusive [activator, single point] |
| Cc1cc(C)n(-c2ccc(C(=O)OCn3nnc4ccccc4c3=O)cc2)n1 | inconclusive [activator, partial curve, poor fit] |
| CCC(=O)NC(C)c1cc(Cl)c2cccnc2c1O (stereo not drawn) | inconclusive [activator, single point] |
| Cn1ccnc1SCc1ccc(Cl)cc1Cl | inconclusive [activator, single point] |
| S=c1[nH]nc([C@@H]2C[C@H]2c2ccccc2)n1-c1ccccc1Cl | inconclusive [activator, partial curve, poor fit] |
| CC1=C(C(=O)Nc2cccc(Cl)c2)C2(CCCCCC2)OC1=O | inconclusive [activator, single point] |
| Oc1ccccc1/C=N/Nc1ncc(Br)cn1 | inconclusive [activator, partial curve, poor fit] |
